# Data as given in the antibiotic and cytotoxicity screens of Wong et al. (2023).
# This is one part of the list.
# What was measured:
# HSkMC = human skeletal muscle cells; test: cytotoxicity call (relative viability < 0.9); conditions: 10 µM
# HepG2 = test: cytotoxicity call (relative viability < 0.9); conditions: 10 µM
# S. aureus RN4220 = test: growth inhibition call (relative growth <= 0.2); conditions: 50 µM
SMILES,cytotoxicity call (HSkMC),cytotoxicity call (HepG2),growth inhibition call (S. aureus RN4220)
CO[C@H]1CN(C)C(=O)c2cc(NS(C)(=O)=O)ccc2OC[C@H](C)N(S(C)(=O)=O)C[C@@H]1C,inactive,inactive,inactive
C[C@@H]1CCCCO[C@@H](CN(C)Cc2ccc(C(=O)O)cc2)[C@H](C)CN([C@H](C)CO)C(=O)c2cc(NC(=O)C3CCCCC3)ccc2O1,inactive,inactive,inactive
COc1ccc(NC(=O)Nc2ccc3c(c2)C(=O)N([C@@H](C)CO)C[C@@H](C)[C@H](CN(C)S(=O)(=O)c2c(C)noc2C)OCCCC[C@H](C)O3)cc1,inactive,inactive,inactive
C[C@@H]1CN([C@H](C)CO)C(=O)c2cccc(NS(=O)(=O)c3cccs3)c2O[C@@H]1CN(C)S(C)(=O)=O,inactive,inactive,inactive
C[C@@H]1CN([C@@H](C)CO)C(=O)c2cc(C#CCN(C)C)cnc2O[C@H]1CN(C)C(=O)Nc1cccc(F)c1,inactive,inactive,inactive
C[C@@H]1CN([C@H](C)CO)C(=O)c2cccc(NC(=O)Nc3ccc(C(F)(F)F)cc3)c2O[C@@H]1CN(C)S(=O)(=O)c1ccc(Cl)cc1,inactive,inactive,inactive
C[C@@H]1CN([C@@H](C)CO)C(=O)c2cccc(NC(=O)c3nc4ccccc4s3)c2O[C@@H]1CN(C)Cc1ccc(C(=O)Nc2ccccc2N)cc1,inactive,active,inactive
C[C@H]1CCCCO[C@H](CN(C)Cc2ccc3c(c2)OCO3)[C@@H](C)CN([C@@H](C)CO)C(=O)c2cc(NS(=O)(=O)c3ccc(Cl)cc3)ccc2O1,inactive,inactive,inactive
Cc1noc(C)c1S(=O)(=O)N(C)C[C@H]1Oc2ccc(NC(=O)C3CC3)cc2CC(=O)N([C@@H](C)CO)C[C@H]1C,inactive,inactive,inactive
Nn1c(C(F)(F)F)n[nH]c1=S,inactive,inactive,inactive
OCC(O)C(O)C(OC1OC(CO)C(O)C(O)C1O)C(O)CO (configuration not stated),inactive,inactive,inactive
Cc1ccc2nc([C@H](N)C(C)C)[nH]c2c1,inactive,inactive,inactive
CC(C)NC(=O)N(C)C[C@@H]1Oc2ccc(NS(=O)(=O)c3ccc(Cl)cc3)cc2C(=O)N([C@H](C)CO)C[C@H]1C,inactive,inactive,inactive
C[C@@H]1CCCCO[C@H](CN(C)C(=O)Nc2ccc(C(F)(F)F)cc2)[C@@H](C)CN([C@H](C)CO)C(=O)c2cc(NC(=O)c3ccccc3)ccc2O1,inactive,inactive,inactive
CC(C)NC(=O)N(C)C[C@@H]1Oc2ccc(NC(=O)CCN3CCOCC3)cc2CC(=O)N([C@H](C)CO)C[C@@H]1C,inactive,inactive,inactive
C[C@@H]1CN([C@@H](C)CO)C(=O)c2cc(NC(=O)c3ccncc3)ccc2O[C@@H](C)CCCCO[C@@H]1CN(C)Cc1ccccc1,inactive,inactive,inactive
CCCNC(=O)c1cc2c(c(-c3cccc(-c4cccc(F)c4)c3)n1)[C@H](CCO)N([S@@](=O)C(C)(C)C)C2,inactive,inactive,active
COc1ccc(S(=O)(=O)Nc2cccc3c2O[C@@H](CN(C)C(=O)NC(C)C)[C@H](C)CN([C@@H](C)CO)C3=O)cc1,inactive,inactive,inactive
O=C([O-])Cc1ccccc1Nc1c(Cl)cccc1Cl.[Na+],inactive,inactive,inactive
CCOC(=O)/C(C)=N\O,inactive,inactive,inactive
COc1ccc(CN(C)C[C@H]2OCCCC[C@@H](C)Oc3ccc(NS(=O)(=O)c4ccccc4)cc3C(=O)N([C@@H](C)CO)C[C@H]2C)cc1,inactive,inactive,inactive
COc1ccc(S(=O)(=O)Nc2ccc3c(c2)CC(=O)N([C@@H](C)CO)C[C@H](C)[C@@H](CN(C)Cc2ccc(-c4ccccc4)cc2)O3)cc1,inactive,inactive,inactive
COc1cc2c(cc1O)[C@H](c1ccc(CN3CCCC3)cc1)N(Cc1sc3ccccc3c1Cl)CC2,inactive,inactive,inactive
C[C@H](CO)N1C[C@H](C)[C@H](CN(C)Cc2ccc3c(c2)OCO3)Oc2ccc(NC(=O)CCCN(C)C)cc2C1=O,inactive,inactive,inactive
C[N+](C)(C)C[C@H](O)CC(=O)O,inactive,inactive,inactive
CO[C@@H]1CN(C)C(=O)c2cc(NS(=O)(=O)c3cn(C)cn3)ccc2OC[C@@H](C)N(CCC(F)(F)F)C[C@H]1C,inactive,inactive,inactive
CCOC(=O)[C@@H](N)Cc1ccccc1,inactive,inactive,inactive
C[C@@H]1CN([C@H](C)CO)C(=O)Cc2cc(NC(=O)Nc3cccc4ccccc34)ccc2O[C@H]1CN(C)C(=O)Nc1ccc2c(c1)OCO2,inactive,inactive,inactive
C[C@H](CO)N1C[C@H](C)[C@H](CN(C)C(=O)Nc2ccccc2C(F)(F)F)OCc2ccccc2-c2ccccc2C1=O,inactive,inactive,inactive
